# Experimental data: the supplement of paper PMC12217912
# The other results are listed elsewhere or left out. Sequences were assembled here from the parent chain. Values near 0.05 are background.
# B1: TEV protease; numbered along this chain (parent)
# chain: MGESLFKGPRDYNPISSSICHLTNESDGHTTSLYGIGFGPFIITNKHLFRRNNGTLVVQSLHGVFKVKDTTTLQQHLVDGRDMIIIRMPKDFPPFPQKLKFREPQREERICLVTTNFQTKSMSSMVSDTSCTFPSGDGIFWKHWIQTKDGQCGSPLVSTRDGFIVGIHSASNFTNTNNYFTSVPKNFMELLTNQEAQQWVSGWRLNADSVLWGGHKVFMVKPEEPFQPVKEATQL
# Variants of: B1
# Experiment: raw area under fraction-flipped curve 0-4 h after induction (AUC4h, not background-subtracted), DNA-recorder readout of cleavage of the substrate (dimensionless); higher = more cleavage of the substrate by the protease variant
# Conditions: temperature: 34 °C; time window: 0-4 h after rhamnose induction
# Description: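 In vivo DNA recorder in E. coli TOP10(DE3) ΔrhaA at 34 °C. Each TEVp single-site mutant (parent TEVp 0) is paired with a single-site variant of the 7-mer TEVs (canonical ENLYFQ|S). The substrate sits between flexible linkers in a Bxb1-sfGFP-TEVs-SsrA fusion, so cleavage stabilises Bxb1 and speeds flipping of a recombination array, read by NGS. The value is the raw area under the fraction-flipped curve over 0-4 h after rhamnose induction (AUC4h), with ≥20 reads per time point. It is not background-subtracted; inactive controls average about 0.047.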
# 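Also: Bxb1 expression induced with 0.2% (w/v) L-rhamnose at OD600 near 0.5, cultures sampled hourly, flipped fraction per protease–substrate barcode pair counted by paired-end Illumina sequencing.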
Variant,area with substrate EALYFQS,area with substrate EDLYFQS,area with substrate EILYFQS,area with substrate EKLYFQS,area with substrate ESLYFQS,area with substrate EVLYFQS,area with substrate ECLYFQS,area with substrate EELYFQS,area with substrate EHLYFQS,area with substrate EMLYFQS,area with substrate EPLYFQS,area with substrate EQLYFQS,area with substrate ERLYFQS,area with substrate ETLYFQS,area with substrate EFLYFQS,area with substrate EGLYFQS,area with substrate ELLYFQS,area with substrate EWLYFQS,area with substrate EYLYFQS
MGESLFKGPRDYNPISSSICHLTNESDGHTTSLYGIGFGPFIITNKHLFRRNNGTLVVQSLHGVFKVKDTTTLQQHLVDGRDMIIIRMPKDFPPFPQKLKFREPQREERICLVTTNFQTKSMSSMVSDTSCTFPSGDGIFWKHWIQTKDGQCGSPLVSTRDGFIVGIHSASNFTNTNNYFTSVPKAFMELLTNQEAQQWVSGWRLNADSVLWGGHKVFMVKPEEPFQPVKEATQL [N186A],0.132,0.128,0.114,0.0756,0.119,0.0954,–,–,–,–,–,–,–,–,–,–,–,–,–
MGESLFKGPRDYNPISSSICHLTNESDGHTTSLYGIGFGPFIITNKHLFRRNNGTLVVQSLHGVFKVKDTTTLQQHLVDGRDMIIIRMPKDFPPFPQKLKFREPQREERICLVTTNFQTISMSSMVSDTSCTFPSGDGIFWKHWIQTKDGQCGSPLVSTRDGFIVGIHSASNFTNTNNYFTSVPKNFMELLTNQEAQQWVSGWRLNADSVLWGGHKVFMVKPEEPFQPVKEATQL [K120I],0.0786,–,0.0927,0.0905,0.0871,–,0.0818,0.109,0.0839,0.107,0.126,0.129,0.116,0.0993,–,–,–,–,–
MGESLFKGPRDYNPISSSICHLTNESDGHTTSLYGIGFGPFIITNKHLFRRNNGTLVVQSLHGVFKVKDTTTLQQHLVDGRDMIIIRMPKDFPPFPQKLKFREPQREERICLVTTNFQTKSMSSMVSDTSCTFPSGDGIFWKHWIQTKDGQCGSPLVSTRDGFIVGIHSASNFTNTNNYFTSVPKNFMELLTNQEAQQWCSGWRLNADSVLWGGHKVFMVKPEEPFQPVKEATQL [V200C],0.0878,–,0.075,–,0.0786,0.0771,0.0948,–,0.0671,0.0962,0.102,0.0959,0.0843,–,0.0741,0.083,0.0745,0.0839,0.0801
MGESLFKGPRDYNPISSSICHLTNESDGHTTSLYGIGFGPFIITNKHLFRRNNGTLVVQSLHGVFKVKDTTTLQQHLVDGRDMIIIRVPKDFPPFPQKLKFREPQREERICLVTTNFQTKSMSSMVSDTSCTFPSGDGIFWKHWIQTKDGQCGSPLVSTRDGFIVGIHSASNFTNTNNYFTSVPKNFMELLTNQEAQQWVSGWRLNADSVLWGGHKVFMVKPEEPFQPVKEATQL [M88V],0.134,0.155,0.102,0.104,0.0971,0.0928,0.101,–,0.025,0.0861,0.123,0.104,–,–,–,–,0.0874,0.116,–
MGESLFKGPRDYNPISSSICHLTNESDGHTTSLYGIGFGPFIITNKGLFRRNNGTLVVQSLHGVFKVKDTTTLQQHLVDGRDMIIIRMPKDFPPFPQKLKFREPQREERICLVTTNFQTKSMSSMVSDTSCTFPSGDGIFWKHWIQTKDGQCGSPLVSTRDGFIVGIHSASNFTNTNNYFTSVPKNFMELLTNQEAQQWVSGWRLNADSVLWGGHKVFMVKPEEPFQPVKEATQL [H47G],0.0787,0.051,0.0463,0.0492,0.0603,0.0578,0.054,0.061,0.0542,0.061,0.0476,0.0561,0.0488,0.0564,0.0669,0.0581,0.0665,0.0426,0.0626
MGESLFKGPRDYNPISSSICHLTNESDGHTTSLYGIGFGPFIITNKHLFRRNNGTLVVQSLHGVFKVKDTTTLQQHLVDGRDMIIIRMPKDFPPFPQKLKFREPQREERICLVTTNFQTKSMSSMVSDTSCTFPSGDGIFWKHGIQTKDGQCGSPLVSTRDGFIVGIHSASNFTNTNNYFTSVPKNFMELLTNQEAQQWVSGWRLNADSVLWGGHKVFMVKPEEPFQPVKEATQL [W144G],0.0862,–,0.073,0.0844,0.0825,0.0802,–,0.1,0.0847,0.103,0.0629,–,0.0897,–,–,–,0.0714,0.102,0.103
MGESLFKGPRDYNPISSSICHLTNESDGHTTSLYGIGFGPFIITNKHLFRRNNGTLVVQSLHGVFKVKDTTTLQQHLVDGRDMIIIRMPKDFPPFPQKLKFREPQREERICLVTTNFQTKSMSSMVSDTSCTFPSGDGIFWKHWIQTKDGQCGSPLVSTRDGFIVGIHSASNFTNHNNYFTSVPKNFMELLTNQEAQQWVSGWRLNADSVLWGGHKVFMVKPEEPFQPVKEATQL [T176H],0.0664,–,0.0591,–,0.0686,–,–,0.0755,0.0659,0.0388,0.088,–,0.0637,–,–,–,0.0585,–,–
MGESLFKGPRDYNPISSSICHLTNESDGHTTSLYGIGFGPFIITNKHLFRRNNGTLVVQSLHGVFKVKDTTTLQQHLVDGRDMIIIRMPKDFPPFPQKLKFREPQREERICAVTTNFQTKSMSSMVSDTSCTFPSGDGIFWKHWIQTKDGQCGSPLVSTRDGFIVGIHSASNFTNTNNYFTSVPKNFMELLTNQEAQQWVSGWRLNADSVLWGGHKVFMVKPEEPFQPVKEATQL [L112A],0.0847,0.094,0.0794,0.0793,0.0911,0.0631,0.0832,0.0914,0.0763,0.104,0.1,0.0899,0.0818,0.104,–,0.0969,–,0.08,0.0748
MGESLFKGPRDYNPISSSICHLTNESDGHTTSLYGIGFGWFIITNKHLFRRNNGTLVVQSLHGVFKVKDTTTLQQHLVDGRDMIIIRMPKDFPPFPQKLKFREPQREERICLVTTNFQTKSMSSMVSDTSCTFPSGDGIFWKHWIQTKDGQCGSPLVSTRDGFIVGIHSASNFTNTNNYFTSVPKNFMELLTNQEAQQWVSGWRLNADSVLWGGHKVFMVKPEEPFQPVKEATQL [P40W],0.124,0.142,0.0997,0.0918,0.104,0.096,0.0505,–,–,0.0753,0.152,0.119,0.0931,0.114,–,0.0849,0.0893,0.105,0.102
MGESLFKGPRDYNPISSSICHLTNESDGHTTSLYGIGFGPFIITNKHLFRRNNGTHVVQSLHGVFKVKDTTTLQQHLVDGRDMIIIRMPKDFPPFPQKLKFREPQREERICLVTTNFQTKSMSSMVSDTSCTFPSGDGIFWKHWIQTKDGQCGSPLVSTRDGFIVGIHSASNFTNTNNYFTSVPKNFMELLTNQEAQQWVSGWRLNADSVLWGGHKVFMVKPEEPFQPVKEATQL [L56H],0.0397,–,–,0.0589,0.0528,0.0498,0.0256,0.0495,–,–,–,–,0.0431,–,0.0469,0.0419,0.0451,–,–
MGESLFKCPRDYNPISSSICHLTNESDGHTTSLYGIGFGPFIITNKHLFRRNNGTLVVQSLHGVFKVKDTTTLQQHLVDGRDMIIIRMPKDFPPFPQKLKFREPQREERICLVTTNFQTKSMSSMVSDTSCTFPSGDGIFWKHWIQTKDGQCGSPLVSTRDGFIVGIHSASNFTNTNNYFTSVPKNFMELLTNQEAQQWVSGWRLNADSVLWGGHKVFMVKPEEPFQPVKEATQL [G8C],0.0981,–,–,–,–,–,–,–,–,–,–,–,–,–,–,–,–,–,–
MGESLFKGPRDINPISSSICHLTNESDGHTTSLYGIGFGPFIITNKHLFRRNNGTLVVQSLHGVFKVKDTTTLQQHLVDGRDMIIIRMPKDFPPFPQKLKFREPQREERICLVTTNFQTKSMSSMVSDTSCTFPSGDGIFWKHWIQTKDGQCGSPLVSTRDGFIVGIHSASNFTNTNNYFTSVPKNFMELLTNQEAQQWVSGWRLNADSVLWGGHKVFMVKPEEPFQPVKEATQL [Y12I],0.151,0.147,0.096,0.101,0.0939,0.0893,0.074,0.0857,0.0927,0.069,–,0.0762,0.0915,0.103,0.149,0.0954,0.0878,0.0892,0.104
MGESLFKGPRDYNPISSSICHLTNESDGHTTSLYGIGFGPFIITNKHLFRRNNGTLVVQSLHGVFKVKDTTTLQQHLVDGRDMIIIRMPKDFPPFPQKLKFREPQREERICLVTTNFQTKSMSSMVSDTSCTFPSGDGIFWKHWIQTKDGQCGSPLVSTRDGFIVGIHSASNFTNTNNYFTSVPKNFMELLTNQEAQQWVSGWILNADSVLWGGHKVFMVKPEEPFQPVKEATQL [R204I],0.118,0.13,0.094,0.0908,0.104,0.109,0.111,0.149,0.118,0.1,0.133,0.142,0.116,0.134,0.103,0.0946,0.09,0.0941,0.123
MGESLFKGPRDYNPISSSICHLTNESDGHTTSLYGIGFGPFIITNKHLFRRNNGTLVVQSLHGVFKVKDTTTLQQHLVDGRDMIIIRMPKDFPPFPQKLKFREPQREERICLVTTNFQTKSMSSMVSDTSCTFPSGDGIFWKHWIQTKDGQCGSPLVSTRDGFIVCIHSASNFTNTNNYFTSVPKNFMELLTNQEAQQWVSGWRLNADSVLWGGHKVFMVKPEEPFQPVKEATQL [G166C],0.0456,–,0.0718,0.0447,0.0534,0.0465,0.0602,0.0479,0.0497,0.0501,–,0.0367,0.0615,–,–,–,0.0398,0.058,0.0568
MGESLFKGPRDYNPISSSICHLTNESDGHTTSLYGIGFGPFIITNKHLFRRNNGTLVVQSLHGVFKVKDTTTLQQHLVDGRDMIIIRMPKDFPPFPQKLKFREPQREERICLVTTNFQTKSMSSMVSDTSCTFPSGDGIFWKHDIQTKDGQCGSPLVSTRDGFIVGIHSASNFTNTNNYFTSVPKNFMELLTNQEAQQWVSGWRLNADSVLWGGHKVFMVKPEEPFQPVKEATQL [W144D],0.0887,–,0.075,0.0835,0.0855,–,0.0823,0.0856,0.0756,0.086,0.0633,0.081,0.0951,–,0.0843,0.0806,0.0721,0.0891,–
MGESLFKGPRDYNPISSSICHLTNESDGHTTSLYGIGFGPFIITNKHLFRRNNGTLVVQSLHGVFKVKDTTTLQQHLVDGRDMIIIRMPKDFPPFPQKLKFREPQREERICLVTTNFQTKSMSSMVSDTSCTFPSGDGIFWKHWIQTKDGQCGSPLVSTRDGFIVGIHSASNFTNENNYFTSVPKNFMELLTNQEAQQWVSGWRLNADSVLWGGHKVFMVKPEEPFQPVKEATQL [T176E],0.0886,0.107,0.0633,0.0656,0.073,0.0835,0.0867,0.0827,0.0559,–,–,0.0804,0.08,0.0776,0.0773,–,–,0.0753,0.0872
MGESLFKGPRDYCPISSSICHLTNESDGHTTSLYGIGFGPFIITNKHLFRRNNGTLVVQSLHGVFKVKDTTTLQQHLVDGRDMIIIRMPKDFPPFPQKLKFREPQREERICLVTTNFQTKSMSSMVSDTSCTFPSGDGIFWKHWIQTKDGQCGSPLVSTRDGFIVGIHSASNFTNTNNYFTSVPKNFMELLTNQEAQQWVSGWRLNADSVLWGGHKVFMVKPEEPFQPVKEATQL [N13C],0.222,0.118,0.107,0.112,0.103,0.0933,0.097,0.114,0.0916,0.154,0.122,0.139,0.108,0.117,0.0939,0.113,0.122,0.107,0.103
MGESLFKGPRDYNPISSSICHLTNESDGHTTSLYGIGRGPFIITNKHLFRRNNGTLVVQSLHGVFKVKDTTTLQQHLVDGRDMIIIRMPKDFPPFPQKLKFREPQREERICLVTTNFQTKSMSSMVSDTSCTFPSGDGIFWKHWIQTKDGQCGSPLVSTRDGFIVGIHSASNFTNTNNYFTSVPKNFMELLTNQEAQQWVSGWRLNADSVLWGGHKVFMVKPEEPFQPVKEATQL [F38R],0.0867,–,0.0652,0.0798,–,0.065,0.0729,0.0646,0.0681,–,0.0713,0.0782,0.0693,0.0899,–,0.0554,–,0.0614,0.0266
